# Reference: the supplement of paper PMC8728848
# The list shows a part of the results.
# B1: SSL (Salmo salar) (protein)
# chain: TGAKGAEEGVVPAETRNQCPTGWFQFGSRCFMFVETARSWPLAERHCVSLGANLASVHSSADDQFLQAIAGCKTGAFSTTWIGGFDAVQDRLWFWSDGSEFDYQNWAKGEPNNSGGREPCIVINWGDEYRWNDIKCGNSFPSVCSKRICEIQKN
# Experiments:
# Assay in all cases: glycan array binding signal (z-score within array); higher = stronger binding
# Details in all cases: glycan notation: IUPAC condensed, linker removed
# [1] = target: Neu5Ac(a2-6)Gal(b1-4)GlcNAc(b1-2)Man(a1-3)[Neu5Ac(a2-6)Gal(b1-4)GlcNAc(b1-2)Man(a1-6)]Man(b1-4)GlcNAc(b1-4)GlcNAc
# Method in brief: (§1)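 Glycan array data were curated from 3228 arrays in the Consortium for Functional Glycomics database and kept only where the protein sequence was available. Glycan names were converted to IUPAC-condensed notation, and columns mapping to the same glycan were averaged. The binding signal is a within-array Z-score, averaged across arrays of the same protein sequence at different concentrations or buffers and across linkers. Negative Z-scores can be read as non-binding.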
# [2] = target: Neu5Ac(a2-6)Gal(b1-4)GlcNAc(b1-2)Man(a1-6)Man(b1-4)GlcNAc(b1-4)GlcNAc
# Method in brief: as §1
# [3] = target: Neu5Ac(a2-6)Gal(b1-4)GlcNAc(b1-2)Man(a1-6)[Gal(b1-4)GlcNAc(b1-2)Man(a1-3)]Man(b1-4)GlcNAc(b1-4)GlcNAc
# Method in brief: as §1
# [4] = target: Neu5Ac(a2-6)Gal(b1-4)GlcNAc(b1-2)Man(a1-6)[GlcNAc(b1-2)Man(a1-3)]Man(b1-4)GlcNAc(b1-4)GlcNAc
# Method in brief: as §1
# [5] = target: Neu5Ac(a2-6)Gal(b1-4)GlcNAc(b1-2)Man(a1-6)[Man(a1-3)]Man(b1-4)GlcNAc(b1-4)GlcNAc
# Method in brief: as §1
# [6] = target: Neu5Ac(a2-6)Gal(b1-4)GlcNAc(b1-3)Gal(b1-3)GlcNAc
# Method in brief: as §1
# [7] = target: Neu5Ac(a2-6)Gal(b1-4)GlcNAc(b1-3)Gal(b1-4)GlcNAc
# Method in brief: as §1
# [8] = target: Neu5Ac(a2-6)Gal(b1-4)GlcNAc(b1-3)Gal(b1-4)GlcNAc(b1-3)Gal(b1-4)GlcNAc
# Method in brief: as §1
# [9] = target: Neu5Ac(a2-6)Gal(b1-4)GlcNAc(b1-3)Gal(b1-4)[Fuc(a1-3)]GlcNAc(b1-3)Gal(b1-4)[Fuc(a1-3)]GlcNAc
# Method in brief: as §1
# [10] = target: Neu5Ac(a2-6)Gal(b1-4)GlcNAc(b1-3)GalNAc
# Method in brief: as §1
# [11] = target: Neu5Ac(a2-6)Gal(b1-4)GlcNAc6S
# Method in brief: as §1
# Neu5Ac(a2-6)GalNAc = target: Neu5Ac(a2-6)GalNAc
# Method in brief: as §1
# [12] = target: Neu5Ac(a2-6)GalNAc(b1-4)GlcNAc
# Method in brief: as §1
# [13] = target: Neu5Ac(a2-6)GlcNAc(b1-4)GlcNAc
# Method in brief: as §1
# [14] = target: Neu5Ac(a2-6)GlcNAc(b1-4)GlcNAc(b1-4)GlcNAc
# Method in brief: as §1
# Neu5Ac(a2-8)Neu5Ac = target: Neu5Ac(a2-8)Neu5Ac
# Method in brief: as §1
# [15] = target: Neu5Ac(a2-8)Neu5Ac(a2-3)Gal(b1-4)Glc
# Method in brief: as §1
# [16] = target: Neu5Ac(a2-8)Neu5Ac(a2-3)[GalNAc(b1-4)]Gal(b1-4)Glc
# Method in brief: as §1
# [17] = target: Neu5Ac(a2-8)Neu5Ac(a2-8)Neu5Ac
# Method in brief: as §1
# [18] = target: Neu5Ac(a2-8)Neu5Ac(a2-8)Neu5Ac(a2-3)Gal(b1-4)Glc
# Method in brief: as §1
# [19] = target: Neu5Ac(a2-8)Neu5Ac(a2-8)Neu5Ac(a2-3)[GalNAc(b1-4)]Gal(b1-4)Glc
# Method in brief: as §1
# [20] = target: Neu5Ac(a2-8)Neu5Ac(a2-8)Neu5Ac(a2-8)Neu5Ac(a2-3)[GalNAc(b1-4)]Gal(b1-4)Glc
# Method in brief: as §1
# [21] = target: Neu5Ac(b2-6)Gal(b1-4)GlcNAc
# Method in brief: as §1
# Neu5Ac(b2-6)GalNAc = target: Neu5Ac(b2-6)GalNAc
# Method in brief: as §1
# [22] = target: Neu5Ac9Ac(a2-3)Gal(b1-3)GlcNAc
# Method in brief: as §1
# [23] = target: Neu5Ac9Ac(a2-3)Gal(b1-4)GlcNAc
# Method in brief: as §1
# [24] = target: Neu5Ac9Ac(a2-6)Gal(b1-4)GlcNAc
# Method in brief: as §1
# [25] = target: Neu5Gc(a2-3)Gal(b1-3)GlcNAc
# Method in brief: as §1
# [26] = target: Neu5Gc(a2-3)Gal(b1-3)[Fuc(a1-4)]GlcNAc
# Method in brief: as §1
# Neu5Gc(a2-3)Gal(b1-4)Glc = target: Neu5Gc(a2-3)Gal(b1-4)Glc
# Method in brief: as §1
# [27] = target: Neu5Gc(a2-3)Gal(b1-4)GlcNAc
# Method in brief: as §1
# [28] = target: Neu5Gc(a2-3)Gal(b1-4)[Fuc(a1-3)]GlcNAc
# Method in brief: as §1
# [29] = target: Neu5Gc(a2-6)Gal(b1-4)GlcNAc
# Method in brief: as §1
# Neu5Gc(a2-6)GalNAc = target: Neu5Gc(a2-6)GalNAc
# Method in brief: as §1
# [30] = target: Neu5Gc(b2-6)Gal(b1-4)GlcNAc
# Method in brief: as §1
binder,measurement,setting,value
B1,glycan array binding signal (z-score),[1],-0.173
same,glycan array binding signal (z-score),[2],-0.176
same,glycan array binding signal (z-score),[3],-0.176
same,glycan array binding signal (z-score),[4],-0.176
same,glycan array binding signal (z-score),[5],-0.177
same,glycan array binding signal (z-score),[6],-0.171
same,glycan array binding signal (z-score),[7],-0.179
same,glycan array binding signal (z-score),[8],-0.182
same,glycan array binding signal (z-score),[9],-0.144
same,glycan array binding signal (z-score),[10],-0.162
same,glycan array binding signal (z-score),[11],-0.181
same,glycan array binding signal (z-score),Neu5Ac(a2-6)GalNAc,-0.18
same,glycan array binding signal (z-score),[12],-0.18
same,glycan array binding signal (z-score),[13],0.202
same,glycan array binding signal (z-score),[14],-0.186
same,glycan array binding signal (z-score),Neu5Ac(a2-8)Neu5Ac,-0.18
same,glycan array binding signal (z-score),[15],-0.177
same,glycan array binding signal (z-score),[16],-0.162
same,glycan array binding signal (z-score),[17],-0.181
same,glycan array binding signal (z-score),[18],-0.179
same,glycan array binding signal (z-score),[19],-0.181
same,glycan array binding signal (z-score),[20],-0.176
same,glycan array binding signal (z-score),[21],-0.18
same,glycan array binding signal (z-score),Neu5Ac(b2-6)GalNAc,-0.177
same,glycan array binding signal (z-score),[22],-0.178
same,glycan array binding signal (z-score),[23],-0.178
same,glycan array binding signal (z-score),[24],-0.185
same,glycan array binding signal (z-score),[25],-0.152
same,glycan array binding signal (z-score),[26],-0.176
same,glycan array binding signal (z-score),Neu5Gc(a2-3)Gal(b1-4)Glc,-0.17
same,glycan array binding signal (z-score),[27],-0.171
same,glycan array binding signal (z-score),[28],-0.154
same,glycan array binding signal (z-score),[29],-0.172
same,glycan array binding signal (z-score),Neu5Gc(a2-6)GalNAc,-0.166
same,glycan array binding signal (z-score),[30],-0.172
